# Measurements reported in article PMC4336329 (PLoS ONE, 2015).
# In all, about 310,000 compounds went through this assay and about 2,200 (0.71%) showed an effect of 50% or more. Effects have a minus sign here. Some of the results follow.
# Target: human ether-à-go-go-related gene (hERG) potassium channel (human, UniProt Q12809)
# Experiment: primary screen, population patch clamp on CHO cells stably expressing hERG
# human ether-à-go-go-related gene (hERG) potassium channel, sequence (Q12809 whole entry, looked up): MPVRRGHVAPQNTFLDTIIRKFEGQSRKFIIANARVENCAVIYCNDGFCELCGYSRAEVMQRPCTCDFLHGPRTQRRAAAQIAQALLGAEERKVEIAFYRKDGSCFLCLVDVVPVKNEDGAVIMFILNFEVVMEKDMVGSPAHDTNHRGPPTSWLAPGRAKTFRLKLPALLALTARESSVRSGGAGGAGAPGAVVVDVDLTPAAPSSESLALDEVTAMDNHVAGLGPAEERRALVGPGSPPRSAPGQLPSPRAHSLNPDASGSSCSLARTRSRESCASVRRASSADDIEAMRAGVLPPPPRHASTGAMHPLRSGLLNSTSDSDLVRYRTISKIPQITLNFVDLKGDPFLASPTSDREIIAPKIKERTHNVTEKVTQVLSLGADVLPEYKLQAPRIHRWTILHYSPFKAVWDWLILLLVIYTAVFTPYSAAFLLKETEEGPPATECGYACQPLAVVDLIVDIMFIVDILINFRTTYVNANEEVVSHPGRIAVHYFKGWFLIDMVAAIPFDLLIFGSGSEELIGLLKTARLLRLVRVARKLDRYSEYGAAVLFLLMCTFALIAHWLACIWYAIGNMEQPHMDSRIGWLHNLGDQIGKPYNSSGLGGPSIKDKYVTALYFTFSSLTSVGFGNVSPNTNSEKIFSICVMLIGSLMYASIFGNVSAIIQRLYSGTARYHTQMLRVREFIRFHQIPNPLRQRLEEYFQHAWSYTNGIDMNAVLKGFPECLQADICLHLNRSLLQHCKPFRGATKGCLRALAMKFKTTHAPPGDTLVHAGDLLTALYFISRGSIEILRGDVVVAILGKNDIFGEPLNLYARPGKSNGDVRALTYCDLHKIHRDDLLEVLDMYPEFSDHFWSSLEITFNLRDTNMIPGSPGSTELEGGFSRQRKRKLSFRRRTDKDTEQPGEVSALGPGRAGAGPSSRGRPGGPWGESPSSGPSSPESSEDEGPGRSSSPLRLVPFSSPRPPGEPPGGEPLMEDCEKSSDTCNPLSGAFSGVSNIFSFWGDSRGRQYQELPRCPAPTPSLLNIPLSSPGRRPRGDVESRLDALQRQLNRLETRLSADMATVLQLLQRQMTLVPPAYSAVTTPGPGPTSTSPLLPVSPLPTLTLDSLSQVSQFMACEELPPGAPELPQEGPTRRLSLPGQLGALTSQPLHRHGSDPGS
row,Structure (SMILES),"hERG current change (%, negative = inhibition) at 1uM [%]"
1,O=C1N[C@@H](Cc2ccccc2)C(=O)N2[C@H]1C[C@H]1c3ccccc3N(OOSc3ccccc3)[C@H]12,3.93
2,C=C(C)C(=O)OCC(C)C,11.6
3,C/C(=N\NC(=O)c1cccs1)c1c(O)cc(C)oc1=O,17.3
4,Cc1cc(C(=O)NN=C2C3CC4CC(C3)CC2C4)c2ccccc2n1,21.7
5,Cc1cnc(C(=O)Nc2cccc3ncccc23)cn1,10.5
6,CC1(C(=O)N/N=C/c2ccc3c(c2)OCO3)CC1(Br)Br (stereo not drawn),-17
7,CCSc1nnc(NC(=O)Cc2cccc(OC)c2)s1,6.82
8,O=C(Nc1ccccc1)Nc1ccc2ocnc2c1,5.94
9,Cc1ccc(NC(=O)CCS(=O)(=O)c2cccc3nonc23)cc1Cl,9.13
10,CSc1ccccc1C(=O)N1CCc2ccccc2C1,-4.94
11,CC(C)(C)c1ccc2c(c1)N(CC(=O)N1CCOCC1)C(=O)CO2,12.4
12,O=C(CCCCCCCCC(=O)N/N=C/c1ccco1)N/N=C/c1ccco1,-4.1
13,CCc1nnc(NC(=O)CCC(=O)N2CCN(Cc3ccc(F)cc3)CC2)s1,12.9
14,Cl.OCCNCc1ccc(OCc2ccc(Cl)cc2Cl)cc1,4.59
15,O=C(CCN1CCc2ccccc2C1)Nc1ccccc1F,5.04
16,Cc1cc(CN2C(=O)c3ccccc3C2=O)no1,4.9
17,CCOC(=O)c1[nH]c(C)c(C(=O)c2ccc(C)cc2)c1C,7.26
18,COc1cc(-c2nc(-c3ccc4c(c3)-c3ccccc3S4(=O)=O)c(-c3ccccc3)[nH]2)cc(OC)c1O,4.68
19,COc1ccc(NC(C)c2cc(Cl)ccc2O)cc1 (stereo not drawn),12.6
20,CCOC(=O)C1C2C=CC(CC2)N1c1ccccc1 (stereo not drawn),5.82
21,CCC(=O)Nc1cc(C)c(OC)c(C)c1,11.9
22,COc1ccc(CCNC(=S)Nc2cc(C)ccc2C)cc1,2.04
23,C/C(=C/Cc1c(O)cc2oc(C)cc(=O)c2c1O)COC1OC(CO)C(O)C(O)C1O (stereo not drawn),6.89

row,Structure (SMILES),"hERG current change (%, negative = inhibition) at 1uM [%]"
1,O=C(Nc1cccc(-c2cccc(F)c2)c1)C1CCN(Cc2ccc(CO)o2)CC1,-13.1
2,Cc1cc(C=C(C#N)C#N)ccc1N1CCCC1,-68.6
3,COc1cccc(CC(=O)NNC(=O)c2c(-c3ccccc3)noc2C)c1,-15.8
4,COC(=O)c1cc(N2C(=O)C3C(C2=O)C2(C)C=CC3(C)O2)ccc1Cl (stereo not drawn),5.73
5,O=C(/C=C/c1ccccc1)N1CCC(c2ccccc2)C1 (stereo not drawn),-6.51
6,COC(=O)c1cc(OC)cc(O)c1C(=O)c1c(O)cc(C)cc1O,15.3
7,Cc1ccsc1/C=C1/SC(N2CC(C)OC(C)C2)=NC1=O (stereo not drawn),7.12
8,O=S(=O)(c1ccc(OCC(O)CN2CCN(c3ccccc3O)CC2)cc1)N1CCOCC1 (stereo not drawn),14.4
9,Cc1[nH][nH]c(=O)c1C(c1c(C)[nH][nH]c1=O)c1cn(Cc2ccc(Cl)c(Cl)c2)c2ccccc12,4.37
10,CCc1cccc(CC)c1NC(=O)c1ccc(-n2cncn2)nc1,11.5
11,O=C(CNC(=O)N1CC(=O)Nc2ccccc21)Nc1ccccc1F,12.4
12,O=C(CN1C(=O)CSc2ncccc21)Nc1cccc(Cl)c1,-2.19
13,COc1ccc(OCc2nnc(SCC(=O)NC3CC4CCC3C4)o2)cc1 (stereo not drawn),12.7
14,CCOc1cc2[nH]c(=O)n(Cc3ccccc3)c(=O)c2cc1OCC,11.3
15,COc1cc(C2NCc3ccccc3-n3cccc32)ccc1O.Cl (stereo not drawn),3.97
16,COc1ccc(-n2c(N)c(Br)c(=O)[nH]c2=O)cc1,-1.01
17,CCC(c1nnnn1C1CCCC1)N1CCN(Cc2ccccc2)CC1.Cl (stereo not drawn),2.81
18,O=C(CCC1CCCCC1)NCCS(=O)(=O)N1CCN(c2ccccc2)CC1,12.7
19,COc1ccc(NC(=O)c2ccc(-n3cccn3)c([N+](=O)[O-])c2)cc1,4.88
20,C#CCOC(=O)Nc1ccc(OCC(F)(F)F)nc1,14.3
21,CCC(=O)Nc1nnc(S(=O)(=O)N2CCc3ccccc32)s1,5.4
22,[O-]/[N+](=C\C=C\c1ccccc1)c1ccccc1,6.34
23,O=C(NCCN1CCN(C(=O)c2cccs2)CC1)C(=O)Nc1ccc(Br)cc1,-44.8

row,Structure (SMILES),"hERG current change (%, negative = inhibition) at 1uM [%]"
1,COC(=O)C1=C(c2cccc3c2S(=O)(=O)c2ccccc2-3)C[C@@H]2CC[C@H]1N2C(=O)N1CCc2cc(OC)c(OC)cc2C1,12.8
2,CC(C)OCCCn1c(-c2ccc(Br)cc2)c[nH]c1=S,-12.3
3,Cc1ccc(NC(=O)c2c(C(F)(F)F)nn(C)c2SCc2ccc(Cl)cc2)cc1C,11.3
4,COc1ccc(C(=O)c2coc3ccc(O)cc23)cc1,12.1
5,CCN1C(=S)N[C@@H](c2cccs2)C(C(=O)OC)=C1C,9.64
6,Cc1ccc(-n2c(SCC(=O)NCc3ccco3)nc3sc4c(c3c2=O)CC(C)(C)SC4)cc1,-3.3
7,O=C(NCc1ccccc1)C(c1ccccc1)N(C(=O)c1csnn1)C1CC1 (stereo not drawn),3.82
8,CN1CCC(NC(=S)NC2CC2)CC1,9.75
9,CC1CC(C)CN(S(=O)(=O)N2CCC(C(=O)NCc3ccco3)CC2)C1 (stereo not drawn),15.6
10,COc1ccc(-n2nc(C(=O)NCC(=O)N3CCCC3)c3ccccc3c2=O)cc1,13.2
11,CCC(=O)N/C(=N/c1nc(C)cc(C)n1)Nc1cccc(OC)c1,-3.38
12,COc1ccc(-n2c(=S)[nH]c3ncccc3c2=O)cc1,8.86
13,COc1ccc(C)cc1S(=O)(=O)N(CC(=O)Nc1cc([N+](=O)[O-])ccc1C)c1ccc(C)c(C)c1,13.4
14,CCSc1nnc(NC(=O)CSc2nccn2-c2cc(C)cc(C)c2)s1,3.12
15,NC(=O)c1ccc(NC(=O)C2CC2)cc1,10.3
16,NC(=O)c1ccc(N2CCNC(=O)C2)c([N+](=O)[O-])c1,19.9
17,Cc1nnc(SCC(=O)Nc2ccc(-c3nc4ccccc4s3)cc2)s1,14.5
18,COc1ccc(C)cc1NC(=O)c1cc2c(=O)n3ccccc3nc2n1C,7.55
19,NC(=O)NC(=O)CSc1nc(-c2ccccc2)c(-c2ccccc2)n1CC1CCCO1 (stereo not drawn),2.8
20,CS(=O)(=O)N(CC(=O)Nc1ccccc1C(=O)NCCc1ccccc1)c1ccc2c(c1)OCCO2,-2.01
21,CN(C)C(CNC(=O)C1CC(=O)N(Cc2ccccc2)C1)c1ccccc1 (stereo not drawn),11.3
22,Cc1ccc(N(C(=O)CCl)C(C(=O)NC2CCCCC2)c2cccnc2)cc1C (stereo not drawn),-6.24
23,COc1ccc(NC(=O)C2CCCN(c3ncccn3)C2)cc1 (stereo not drawn),7.19

row,Structure (SMILES),"hERG current change (%, negative = inhibition) at 1uM [%]"
1,Cc1noc(C)c1NC(=O)NCCN1CCN(Cc2ccccc2)CC1,11
2,O=C(NCc1cccnc1)C(=O)NCC(c1ccco1)N1CCOCC1 (stereo not drawn),10.8
3,Cc1cccc(C)c1N(CC(=O)Nc1cccc(N(C)S(C)(=O)=O)c1)S(C)(=O)=O,2.01
4,O=C(Nc1ccc(Br)cc1)c1cccc(NC(=O)C2C3CC4OC(=O)C2C4C3)c1 (stereo not drawn),17.5
5,Cc1ccc(NC(=O)NCCN2CCCCC2)cc1,7.39
6,NC(=O)C(c1ccc(Sc2ccccc2)nn1)c1ccc(Cl)cc1Cl (stereo not drawn),-0.811
7,O=C(c1ccc(OC(F)(F)F)cc1)c1ncc[nH]1,12.6
8,CCc1nc2c(cnn2-c2ccc(Cl)cc2)c(=O)n1-c1ccc(OC)cc1,-0.134
9,O=[N+]([O-])c1ccc(-n2cnc3ccccc32)c([N+](=O)[O-])c1,5.21
10,Cc1ccccc1NN=Nc1nc2c([nH]1)c(=O)n(C)c(=O)n2C,15.6
11,CN1CCN(NC(=O)c2ccc(Br)c(S(=O)(=O)N3CCOCC3)c2)CC1.Cl,4.4
12,COc1ccc(C)cc1NC(=O)NCCC1=CCCCC1,-5.48
13,CC(=O)Nc1ccc(S(=O)(=O)Nc2nc3c(s2)CCCC3)cc1,6.98
14,Cc1ccc(Cn2c(=O)oc3ccccc32)cc1,11.6
15,O=C(CN1CSCC1=O)N1CCN(S(=O)(=O)c2ccc(Cl)cc2)CC1,-1.13
16,CN1C(=O)C(C)(C)c2cc(S(=O)(=O)N3CCN(c4ccccc4)CC3)ccc21,-2.71
17,Cc1[nH]n(-c2ccccc2)c(=O)c1C=NCCc1ccccc1,11.8
18,Cc1ccc(-c2nc3ccccc3o2)cc1NC(=S)NC(=O)/C=C/c1ccco1,16.7
19,O=C(NCc1ccccc1)C(=O)NCC(c1ccco1)N1CCN(c2ccccc2F)CC1 (stereo not drawn),7.87
20,CCC(=O)Nc1nc2c(c(=O)[nH]1)CCCC2,11.9
21,COC(=O)c1ccccc1NC(=O)Cn1nnc(-c2ccc(OC)cc2)n1,7.8
